# From publication PMC12136788
# This is one part of the list.
# T1: UNK ZnF1-3 (human, UniProt Q9C0B0 31-174)
# T1 sequence: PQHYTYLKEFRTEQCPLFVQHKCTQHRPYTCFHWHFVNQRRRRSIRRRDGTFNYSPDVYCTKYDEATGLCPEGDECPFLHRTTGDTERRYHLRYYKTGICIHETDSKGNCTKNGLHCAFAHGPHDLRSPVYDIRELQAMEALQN
# B1: chr7:7679991:7679992:-_ENSG00000106399_ENST00000396682|hu_hu|hu_hu_hu_mus_False|18_78 (ssRNA)
# RNA: GGGAGUUCUACAGUCCGACGAUCUGGGAUGAAUCUUUUCCAGCUUCCCCACGAAGCAGACAGGCUUGUCGAUAUACUGUGGUAACAUGCUGGCGUUGACGCGCGCUUUGGGGAGCUCCAUCAUGUCCUCCAUGAUUCUGCCGCCAACAGAGGAUUGAGCAUCA
# B2: chr11:72497679:72497680:+_ENSMUSG00000020794_ENSMUST00000021148|mus_mus|FALSE|FALSE (ssRNA)
# RNA: GGGAGUUCUACAGUCCGACGAUCUAUUGCUACAUCCAAUCCAAGAGAUGGGUGAAUCAUAGUACAAAAAGGACAAAGCACCUAGUGAUGACCCCUCCUCUGAAGUCAUCGUGAAAAACUCAAGUAAUUUACUAGUAUUUCAGUCAACAGAGGAUUGAGCAUCA
# B3: chr16:94664741:94664742:+_ENSMUSG00000040785_ENSMUST00000117648|mus_hu|mus_mus_mus_hu_False|68_88 (ssRNA)
# RNA: GGGAGUUCUACAGUCCGACGAUCUGGUACUGAUCUUGGUAGCUGAUACUCAGAAGAAAGGCUGGCCAAAGGUGUGUAUAUGCUGGUGUACUGGGGCAAACCUGGUAACACGUUUAUGUAUGCUGGCGGUGUCUGGGUGAUAUCCAACAGAGGAUUGAGCAUCA
# B4: chr7:151048522:151048523:+_ENSG00000013374_ENST00000566856|hu_mus|hu_hu_hu_mus_True|18_98 (ssRNA)
# RNA: GGGAGUUCUACAGUCCGACGAUCCUGUUUCUUAUUUAUGACAAUUUUGAUGUAAUUUUCUUGAAAUCCGAAAGUUUCAGCUAUUUGACACCUCAGGUCUCUACCAGUGACAUGCAAUCGGGUCUCCAACAAGCUUUUCUUAUCCAACAGAGGAUUGAGCAUCA
# B5: chr12:16947260:16947261:+_ENSMUSG00000020580_ENSMUST00000020904|mus_mus|FALSE|FALSE (ssRNA)
# RNA: GGGAGUUCUACAGUCCGACGAUCAAUAUCUCUUUCUUCCCAGAAAAAAGCAGAAUCUGAUCUUUUUAUCAUUUCAAAUUUACUAAGAAGCUUCAUUGCAUAAACCUUCUGUGAUGCCUUAUGACGAACCAACUGAACUUCACCCAACAGAGGAUUGAGCAUCA
# B6: chr1:205685097:205685098:-_ENSG00000069275_ENST00000367142|hu_hu|FALSE|FALSE (ssRNA)
# RNA: GGGAGUUCUACAGUCCGACGAUCUAUCAAGCCUGACUAUUGAGCACCUGUAUCCAGUUGAGUCACCACCACUGUCCUCCUAUUUGCAUGCAUGAUUUGAGGGGAAGACUAGAGUGUUUUAAAUCAUCAAUAAAAAGUGGAGAACAACAGAGGAUUGAGCAUCA
# B7: chr14:20710596:20710597:-_ENSMUSG00000043004_ENSMUST00000160013|mus_mus|FALSE|FALSE (ssRNA)
# RNA: GGGAGUUCUACAGUCCGACGAUCAUCCUGUCGAUGUUGGCUUCCAUCUUCAGCUGUUCUACCAGCUUCCUGGCUUGUGCUAUGCUGGCGGUGUUGUUGCUGGCCAUUGGAGCGUUGGAUGGGGUCUUCAGAGACUCUGGUCAGCAACAGAGGAUUGAGCAUCA
# B8: 14287163_14290935_615_CDS_ENSG00000038382_ENST00000344204|human|control|control (ssRNA)
# RNA: GGGAGUUCUACAGUCCGACGAUCUCUGAUUUCAAUCCAUUCUUCGUGGUUGUAUUCCAGGCAGCCAUCAAACUCAGGAGUUAGCUGAGAAGGAUCAACUACUUUGGUAAGGCCUUCUAAAGAGACCAUAUUUGUCUCAAAUUCCAACAGAGGAUUGAGCAUCA
# B9: chr3:9412954:9412955:+_ENSG00000134077_ENST00000452837|hu_mus|hu_hu_hu_mus_False|18_28 (ssRNA)
# RNA: GGGAGUUCUACAGUCCGACGAUCGGUUGAUAUCUCUUCUUUGAUGGCUGGAUUUUCAUAAUAGUCCAAGAUAUGUGAAUCUGAAGUGCUGCUGGCAUGCUUUUUCUUAACAUUUCUCUGAUCGAUUUUGUCUCCUUGUCCACACAACAGAGGAUUGAGCAUCA
# B10: chr12:110720550:110720551:+_ENSG00000174437_ENST00000539276|hu_mus|FALSE|FALSE (ssRNA)
# RNA: GGGAGUUCUACAGUCCGACGAUCUUCCUCGAACCAAGCCAAAACGAAAGAUAUACAUGCUGCCAGCAGUAAAAUUCUAACUAGUAAGUCUUCAAACUGCUCAAUCACAAGUUCCAGCAAGGUUUUUCCUUCUUCAGCCGGCAACAACAGAGGAUUGAGCAUCA
# B11: 57393166_57394276_872_CDS_ENSMUSG00000032306_ENSMUST00000034856|mouse|control|control (ssRNA)
# RNA: GGGAGUUCUACAGUCCGACGAUCAGCACGCACGGUAUUGUCCGAACAUGCCAUGCAUUCCACGCAGUCUCCCUUCAGGUAGGCAUGGGGUACGUUGGCAUCCAGAAACAUGGCUUCCCCAGGCUUCAAGGUGAGCAGGUUCAGCAACAGAGGAUUGAGCAUCA
# B12: chr19:29884105:29884106:-_ENSMUSG00000074909_ENSMUST00000099525|mus_mus|motif|central (ssRNA)
# RNA: GGGAGUUCUACAGUCCGACGAUCCAGAGAGAAAUGGUAUAUCUCUCAUUUGUAAUGAAUCCACUCACGACACGUUGUAGCGGCUUUUAUGAUAGAUGGUAUUAAACUGCUUCAAGCAAAACUGAGUAACUCAUGUAAAGCUUCCAACAGAGGAUUGAGCAUCA
# B13: chr2:78712580:78712581:+_ENSMUSG00000027011_ENSMUST00000028398|mus_mus|motif|central (ssRNA)
# RNA: GGGAGUUCUACAGUCCGACGAUCGUUAGGAGGAGGAUCAAGGGUUAUCUCUGCUAGCUCCUUCUGAAUUCUUUUAGCACGGGUGGAUAACUUAGCAGUCGUUUUGCUAGAGAGUUUGGUGUUUUUCUUCUGCUGGGUGGCAGACAACAGAGGAUUGAGCAUCA
# B14: 53854897_53858558_661_CDS_ENSG00000197111_ENST00000546463|human|control|control (ssRNA)
# RNA: GGGAGUUCUACAGUCCGACGAUCUGUGCUGUACCUGUCCUGACCACCUGCAAAGAUGACCGGAGAGCUGGACGGCUUGGGCCGGUACGGGAUGGUCACGCCCUUCGGGGGGGACUCCAACAUGACCACGCAGAUCUGUUUGACCAACAGAGGAUUGAGCAUCA
# B15: chr11:87793471:87793472:-_ENSMUSG00000020483_ENSMUST00000020775|mus_mus|mus_mus_mus_hu_False|48_98 (ssRNA)
# RNA: GGGAGUUCUACAGUCCGACGAUCUGGACUUGAAAAUAAAAAAAAUAGCUGGAUCCCCCACCCCCCCACAUUGUCAACCCUACACGAGUUCUGAAUGGGCGACUCAUGAAAAUCAGCAGCUCAAACGGCAAUGACCACCCCACCCAACAGAGGAUUGAGCAUCA
# B16: chr2:217001886:217001887:+_ENSG00000079246_ENST00000392132|hu_mus|FALSE|FALSE (ssRNA)
# RNA: GGGAGUUCUACAGUCCGACGAUCGUAAGGGAAGGCUACACCAACUUGAGGAUUAGAUCUUUUGUCAUAAGCAUAUCGGACGAUGGCGACCAUGUUUAACUCAUCCAAAGCAUGAACGAGAGAGGAAAGGGCAACAGCUGCCGCCAACAGAGGAUUGAGCAUCA
# B17: chr1:180459674:180459675:+_ENSMUSG00000026494_ENSMUST00000161017|mus_mus|FALSE|FALSE (ssRNA)
# RNA: GGGAGUUCUACAGUCCGACGAUCGCCUCUCUUUAUUUCCGGCUACCGAAUUCAUGGUGGCUCUUCCAGAGGAAAGGGUCUAAAUGUUCCCACAAGGCUACAUCCAAAAGGUCUGCCAACCCAGACGCGUCCCCCCUCGUGGUACAACAGAGGAUUGAGCAUCA
# B18: chrX:71549400:71549401:+_ENSMUSG00000019087_ENSMUST00000019231|mus_hu|mus_mus_mus_hu_False|78_88 (ssRNA)
# RNA: GGGAGUUCUACAGUCCGACGAUCGCAGUAGGAAGAGGGAAGCUCUUCAUCCACUGUGUCACAAAACUGGGAAAGCAACAACACGGACACCGUCCCACCCUCAACCCCCCCACUGGCACAGGGUCACACAAUCUGGGUCAAAGACAACAGAGGAUUGAGCAUCA
# B19: chr5:77717642:77717643:+_ENSG00000085365_ENST00000538629|hu_mus|FALSE|FALSE (ssRNA)
# RNA: GGGAGUUCUACAGUCCGACGAUCGACUGCUCUCGAGGAAUCAACACAAAACCAGGCCAAGCAUCCGAAGAUGUUCAGAAACAGGGUCACUGCAUGGAACAUCCAUAGGUAGUACAUAAGCUUCACCGUCUUCUGGAAUUCUACCAACAGAGGAUUGAGCAUCA
# B20: chr16:17428906:17428907:+_ENSMUSG00000022765_ENSMUST00000023449|mus_hu|FALSE|FALSE (ssRNA)
# RNA: GGGAGUUCUACAGUCCGACGAUCGCGGGGACAUCUGCCAACAAAAGAGCAAGAUGGCACACUCUAUUUCCCAUUCUAACACUGAUCCUUUCUGGGAGGAUGAAAGAAUCACAGAUAAUGUGCUCAGAGAGUGUGUGUGUGUGUCAACAGAGGAUUGAGCAUCA
# B21: chr3:52741720:52741721:+_ENSG00000114902_ENST00000602728|hu_mus|FALSE|FALSE (ssRNA)
# RNA: GGGAGUUCUACAGUCCGACGAUCGUAGAUAGGCCAUGGAGGAAGUGUCAGCAAACAGGAGAAAGCAAAUCCGGCCAUAACUAUGUAGACAGUCCACCCAAACUGUUCAGCCACGUACCCGUAGAUAAACCCAACUAUUGCAGACAACAGAGGAUUGAGCAUCA
# B22: 56584608_56585569_802_3pUTR_ENSG00000108389_ENST00000323456|human|control|control (ssRNA)
# RNA: GGGAGUUCUACAGUCCGACGAUCGCAUUGCGCCAGCCCCACCAGCUGAUCUCUGGCUGGCUGCAGCGGGCGAUGGCAGCCCCAUUGCGCAAGUGUCUAUACACAACCACGGGAAUCCGCUUCCAGGAGCGGAAGGAAGCCACGCAACAGAGGAUUGAGCAUCA
# Target: T1, UNK ZnF1-3
# Test: nsRBNS (natural sequence RNA bind-n-seq); RBNS binding buffer (assumed for nsRBNS): 25 mM Tris pH 7.5, 150 mM KCl, 3 mM MgCl2, 0.01% Triton X-100, 500 ug/ml BSA, 20 U/ml SUPERase-In, 4 C; UNK is unkempt and MSI1 is Musashi-1; names of the RNAs are library labels; protein concentration not given here; high values mean tight binding
row,Binder,binding signal [enrichment R]
1,B1,0.591
2,B2,0.891
3,B3,1.05
4,B4,0.649
5,B5,0.876
6,B6,2.13
7,B7,0.408
8,B8,0.748
9,B9,0.419
10,B10,1.08
11,B11,1.27
12,B12,0.742
13,B13,0.842
14,B14,1.16
15,B15,2.95
16,B16,1.59
17,B17,1.37
18,B18,1.2
19,B19,1.54
20,B20,1.81
21,B21,1.7
22,B22,0.825
